The values that follow come from patent US20260008835A1 (SHANGHAI REGENELEAD THERAPIES, published 2026).

Like-named read-outs stand apart in the source and are kept apart here.

The target of experiment [1] is T1, Human VEGF-C protein (human, UniProt P49767 112-227, limits assumed).
T1 construct: Treated as one molecule; also called VEFG-C
T1 sequence (looked up): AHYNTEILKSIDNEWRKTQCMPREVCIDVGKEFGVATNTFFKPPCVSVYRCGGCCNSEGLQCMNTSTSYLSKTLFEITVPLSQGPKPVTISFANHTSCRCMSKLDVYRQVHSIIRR
Nature of the experiment: SPR (Biacore T200), binder captured on Protein A chip, VEGF as analyte, multi-cycle. In general terms: In SPR one partner is held on a chip, and binding of the other changes the refractive index at the surface.

Experiment [2] deals with T2, Human VEGF-A protein (human, UniProt P15692-4 27-191, limits assumed).
T2 sequence (looked up): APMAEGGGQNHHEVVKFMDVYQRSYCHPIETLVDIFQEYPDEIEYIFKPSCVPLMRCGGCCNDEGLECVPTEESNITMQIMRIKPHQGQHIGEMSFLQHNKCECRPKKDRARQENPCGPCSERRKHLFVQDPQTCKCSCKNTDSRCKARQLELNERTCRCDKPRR
Nature of the experiment: cell-based or functional assay.

In experiment [3] the target is T2, Human VEGF-A protein. Nature of the experiment: cell-based or functional assay. This is another data set of the same source.
Experiment [4] has as its target T2, Human VEGF-A protein. Nature of the experiment: cell-based or functional assay. The source holds these as a separate data set.
Experiment [5] deals with T2, Human VEGF-A protein. Nature of the experiment: cell-based or functional assay. The source holds these as a separate data set.
Experiment [6] deals with T2, Human VEGF-A protein. Nature of the experiment: SPR (Biacore T200), binder captured on Protein A chip, VEGF as analyte, multi-cycle.
The target in experiment [7] is T3, Human VEGF-B protein (human, UniProt P49765-2 22-188, limits assumed).
T3 sequence (looked up): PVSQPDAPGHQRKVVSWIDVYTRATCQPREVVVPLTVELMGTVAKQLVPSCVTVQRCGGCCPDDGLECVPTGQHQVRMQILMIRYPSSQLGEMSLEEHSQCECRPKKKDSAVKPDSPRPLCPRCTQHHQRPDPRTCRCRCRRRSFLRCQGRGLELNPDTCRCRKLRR
Described as above.

B1: OPT-302 (HRAMD-C3) (Fc fusion)
chain: YSMTPPTLNITEESHVIDTGDSLSISCRGQHPLEWAWPGAQEAPATGDKDSEDTGVVRDCEGTDARPYCKVLLLHEVHAQDTGSYVCYYKYIKARIEGTTAASSYVFVRDFEQPFINKPDTLLVNRKDAMWVPCLVSIPGLNVTLRSQSSVLWPDGQEVVWDDRRGMLVSTPLLHDALYLQCETTWGDQDFLSNPFLVHITGNELYDIQLLPRKSLELLVGEKLVLNCTVWAEFNSGVTFDWDYPGKQAERGKWVPERRSQQTHTELSSILTIHNVSQHDLGSYVCKANNGIQRFRESTEVIVHE[human IgG1 Fc not printed]
notes: Positive control for VEGF-C
With B1, in experiment [1], binding was characterised by a dissociation constant (Kd) of 0.0151 nM; the koff (as a rule, the first-order rate constant of dissociation) stood at 4.85e-05 s⁻¹; the kon (in general, the second-order rate constant of association) was 3.21e+06 M⁻¹ s⁻¹.

B2: Aflibercept (PR1076) (Fc fusion)
chain: SDTGRPFVEMYSEIPEIIHMTEGRELVIPCRVTSPNITVTLKKFPLDTLIPDGKRIIWDSRKGFIISNATYKEIGLLTCEATVNGHLYKTNYLTHRQTNTIIDVVLSPSHGIELSVGEKLVLNCTARTELNVGIDFNWEYPSSKHQHKKLVNRDLKTQSGSEMKKFLSTLTIDGVTRSDQGLYTCAASSGLMTKKNSTFVRVHEK[human IgG1 Fc not printed]
notes: Positive control for VEGF-A; also called R1D2-R2D3-Fc
For the molecule B2, the “VEGF-A IC50; VEGF-A-induced NFAT-RE-luc2P/KDR HEK293 reporter gene expression” value turned out to be 0.76 nM in experiment [2], 0.5 nM in experiment [3], 0.72 nM in experiment [4] and 0.099 nM in experiment [5]. Also, the Kd (as a rule, the constant that tells how readily two partners part at equilibrium) in experiment [6] came out at 0.00818 nM; in experiment [7] it was 0.0754 nM. The dissociation rate constant (koff) in experiment [6] came out at 8.46e-05 s⁻¹; in experiment [7] it was 0.000114 s⁻¹. The figures for the kon in experiment [6] and in experiment [7] were 1.03e+07 M⁻¹ s⁻¹ and 1.51e+06 M⁻¹ s⁻¹, respectively.

B3: PR1145 (R1D2-R2D3-linker-R2D2 (C162V)-R2D3 (S283T)-Fc) (Fc fusion)
chain: SDTGRPFVEMYSEIPEIIHMTEGRELVIPCRVTSPNITVTLKKFPLDTLIPDGKRIIWDSRKGFIISNATYKEIGLLTCEATVNGHLYKTNYLTHRQTNTIIDVVLSPSHGIELSVGEKLVLNCTARTELNVGIDFNWEYPSSKHQHKKLVNRDLKTQSGSEMKKFLSTLTIDGVTRSDQGLYTCAASSGLMTKKNSTFVRVHEKGGGGSSPFIASVSDQHGVVYITENKNKTVVIPCLGSISNLNVSLVARYPEKRFVPDGNRISWDSKKGFTIPSYMISYAGMVFCEAKINDESYQSIMYIVVVVGYRIYDVVLSPSHGIELSVGEKLVLNCTARTELNVGIDFNWEYPSSKHQHKKLVNRDLKTQSGTEMKKFLSTLTIDGVTRSDQGLYTCAASSGLMTKKNSTFVRVHEK[human IgG1 Fc with changes not printed]
For the molecule B3, the results for the “VEGF-A IC50; VEGF-A-induced NFAT-RE-luc2P/KDR HEK293 reporter gene expression” value in experiment [3] and in experiment [5] were 0.92 nM and 0.11 nM, respectively. For the same molecule, the figures for the Kd in experiment [6], in experiment [7] and in experiment [1] were 0.045 nM, 0.0132 nM and 0.0284 nM, respectively. For the same molecule, the koff is 9.87e-05 s⁻¹ in experiment [6], 0.000271 s⁻¹ in experiment [7] and 7.98e-05 s⁻¹ in experiment [1]. Moreover, the kon was 2.19e+06 M⁻¹ s⁻¹ in experiment [6], 2.05e+07 M⁻¹ s⁻¹ in experiment [7] and 2.81e+06 M⁻¹ s⁻¹ in experiment [1].

B4: PR1173 (R1D2-R2D3-linker-R2D2 (C162V/Y221S/R222K)-R2D3 (S283T)-Fc) (Fc fusion)
chain: SDTGRPFVEMYSEIPEIIHMTEGRELVIPCRVTSPNITVTLKKFPLDTLIPDGKRIIWDSRKGFIISNATYKEIGLLTCEATVNGHLYKTNYLTHRQTNTIIDVVLSPSHGIELSVGEKLVLNCTARTELNVGIDFNWEYPSSKHQHKKLVNRDLKTQSGSEMKKFLSTLTIDGVTRSDQGLYTCAASSGLMTKKNSTFVRVHEKGGGGSSPFIASVSDQHGVVYITENKNKTVVIPCLGSISNLNVSLVARYPEKRFVPDGNRISWDSKKGFTIPSYMISYAGMVFCEAKINDESYQSIMYIVVVVGSKIYDVVLSPSHGIELSVGEKLVLNCTARTELNVGIDFNWEYPSSKHQHKKLVNRDLKTQSGTEMKKFLSTLTIDGVTRSDQGLYTCAASSGLMTKKNSTFVRVHEK[human IgG1 Fc with changes not printed]
Consider B4, for which the “VEGF-A IC50; VEGF-A-induced NFAT-RE-luc2P/KDR HEK293 reporter gene expression” value in experiment [4] came out at 1.08 nM.

B5: PR1172 (R1D2-R2D3-linker-R2D2 (C162V/Y221S/R222K)-R2D3 (N274F)-Fc) (Fc fusion)
chain: SDTGRPFVEMYSEIPEIIHMTEGRELVIPCRVTSPNITVTLKKFPLDTLIPDGKRIIWDSRKGFIISNATYKEIGLLTCEATVNGHLYKTNYLTHRQTNTIIDVVLSPSHGIELSVGEKLVLNCTARTELNVGIDFNWEYPSSKHQHKKLVNRDLKTQSGSEMKKFLSTLTIDGVTRSDQGLYTCAASSGLMTKKNSTFVRVHEKGGGGSSPFIASVSDQHGVVYITENKNKTVVIPCLGSISNLNVSLVARYPEKRFVPDGNRISWDSKKGFTIPSYMISYAGMVFCEAKINDESYQSIMYIVVVVGSKIYDVVLSPSHGIELSVGEKLVLNCTARTELNVGIDFNWEYPSSKHQHKKLVFRDLKTQSGSEMKKFLSTLTIDGVTRSDQGLYTCAASSGLMTKKNSTFVRVHEK[human IgG1 Fc with changes not printed]
Turning to B5, in experiment [4], the “VEGF-A IC50; VEGF-A-induced NFAT-RE-luc2P/KDR HEK293 reporter gene expression” value is 0.92 nM.

B6: PR1174 (R1D2-R2D3-linker-R2D2 (C162V/Y221S/R222K)-R2D3 (N274F/S283T)-Fc) (Fc fusion)
chain: SDTGRPFVEMYSEIPEIIHMTEGRELVIPCRVTSPNITVTLKKFPLDTLIPDGKRIIWDSRKGFIISNATYKEIGLLTCEATVNGHLYKTNYLTHRQTNTIIDVVLSPSHGIELSVGEKLVLNCTARTELNVGIDFNWEYPSSKHQHKKLVNRDLKTQSGSEMKKFLSTLTIDGVTRSDQGLYTCAASSGLMTKKNSTFVRVHEKGGGGSSPFIASVSDQHGVVYITENKNKTVVIPCLGSISNLNVSLVARYPEKRFVPDGNRISWDSKKGFTIPSYMISYAGMVFCEAKINDESYQSIMYIVVVVGSKIYDVVLSPSHGIELSVGEKLVLNCTARTELNVGIDFNWEYPSSKHQHKKLVFRDLKTQSGTEMKKFLSTLTIDGVTRSDQGLYTCAASSGLMTKKNSTFVRVHEK[human IgG1 Fc with changes not printed]
For the molecule B6, the “VEGF-A IC50; VEGF-A-induced NFAT-RE-luc2P/KDR HEK293 reporter gene expression” value came out at 1.02 nM in experiment [4] and 0.12 nM in experiment [5]. Moreover, the results for the dissociation constant Kd in experiment [6], in experiment [7] and in experiment [1] were 0.0429 nM, 0.321 nM and 0.0234 nM, respectively. The koff was found to be 0.000115 s⁻¹ in experiment [6], 0.000161 s⁻¹ in experiment [7] and 5.17e-05 s⁻¹ in experiment [1]. Besides, the results for the kon in experiment [6], in experiment [7] and in experiment [1] were 2.68e+06 M⁻¹ s⁻¹, 501000 M⁻¹ s⁻¹ and 2.21e+06 M⁻¹ s⁻¹, respectively.
